Laboratory results published in PubChem BioAssay AID588855 (National Center for Advancing Translational Sciences (NCATS), 2011).
In all, about 410,000 compounds went through this assay and about 5,000 (1.2%) were called active. Inconclusive results, whose numbers are uncertain, are shown with a selection of clear calls. Calls follow the shape of the dose curve; as a rule, active = well fitted inhibition curve with a large enough effect; inconclusive = small, poorly fitted or top-dose-only effect; inactive = no such curve, though single readings can be large or run the other way. Potencies of inconclusive entries are doubtful fits and often do not repeat.
Potency is read from the fitted curve at half-maximal effect; tags tell the direction and shape of the fitted curve.

Assay: qHTS for Inhibitors of TGF-b; also: nearly all actives have a fitted effect of over 65% in size
Settings: HepG2 CAGA-GFP TGF-b/SMAD3 reporter, GFP fluorescence, 18 h, TGF-beta stimulated, 500 pg/mL final; series mostly up to 46.1 µM
Outline: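 First, reporter cells (HEPG2 CAGA-GFP) rested 2 h at 37 degrees C. Next, compounds were pinned in and TGF-beta added to 500 pg/mL final. After 18 h, GFP was imaged per cell and summed per well.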
With `COC(C/C=C\[C@H](O)[C@H](C)OCc1ccccc1)OC` the Potency was inconclusive: 0.112 µM [inhibitor, full curve, poor fit]. In the case of `CCOC(=O)c1c(NC(=O)C2=C(C)NC(=S)NC2c2ccc(F)cc2F)sc(C)c1C` (stereo not given), the Potency is reported as inconclusive: 25.1 µM [inhibitor, single point]. In the case of `CCOC(=O)c1cnc(SC2CCc3ccccc3C2=O)nc1N` (stereo not given), the Potency is reported as “inactive”. With `CC1(C)CC(C#N)(N2CCOCC2)CCO1` (stereo not given) the Potency was inconclusive: 5.01 µM [inhibitor, full curve]. For `CN(C)CCCN(C(=O)CCS(=O)(=O)c1ccccc1)c1nc2cc3c(cc2s1)OCO3`, the Potency was inconclusive: 6.31 µM [inhibitor, single point]. For `O=C(Nc1ccc(NC(=O)C2CC2)cc1)c1cccs1`, the Potency was “inactive”. With `O=C1Nc2c(Br)cc(Br)cc2C1(O)N1CCOCC1` (stereo not given) the Potency was inconclusive: 22.4 µM [inhibitor, single point]. In the case of `CCCCCCSc1cc(-c2nc3cc(C)ccn3c2NC2CCCCC2)ccc1OC`, the Potency is reported as inconclusive: 35.5 µM [inhibitor, single point]. In the case of `CCOC(=O)C1CN(S(=O)(=O)c2ccccc2)CCN1S(=O)(=O)c1ccccc1` (stereo not given), the Potency is reported as inconclusive: 25.1 µM [inhibitor, single point]. With `Cc1ccccc1OCc1nnc(SCc2cc(=O)c3ccccc3[nH]2)n1C` the Potency was inconclusive: 11.2 µM [inhibitor, partial curve]. For `COc1ccc(/C=N/NC(=O)c2cc(C(C)(C)C)[nH]n2)cc1COc1ccc(F)cc1F`, the Potency was inconclusive: 35.5 µM [inhibitor, single point]. In the case of `O=C(COC(=O)c1ccccc1N1C(=O)C2C3CCC(C3)C2C1=O)c1ccccc1` (stereo not given), the Potency is reported as “inactive”. In the case of `Fc1cc(Cl)ccc1Nc1nc(NCc2ccccc2)nc2ccsc12`, the Potency is reported as inconclusive: 35.5 µM [inhibitor, single point]. With `Cc1cc2nc(-c3cc(NC(=O)c4cc5ccccc5o4)ccc3Cl)oc2cc1C` the Potency was “inactive”. In the case of `CC1=C(C(=O)OCc2ccccc2)C(c2ccccc2OC(F)F)NC(=O)N1` (stereo not given), the Potency is reported as inconclusive: 35.5 µM [inhibitor, single point]. For `CCc1ccc(NC(=O)CSc2nc3n[nH]c(C)c3c(=N)n2-c2ccccc2C)cc1`, the Potency was inconclusive: 12.6 µM [inhibitor, partial curve, poor fit]. For `Cc1oc(-c2ccc(Cl)cc2)nc1CS(=O)CC(=O)NCc1ccc(Cl)cc1` (stereo not given), the Potency was inconclusive: 2.51 µM [inhibitor, partial curve]. With `O=C(/C=C(/c1ccc(Cl)cc1)n1cncn1)c1ccccc1` the Potency was “inactive”. With `Cc1cc(NC(=O)C(C)C)cc(-c2nc3ncccc3o2)c1O` the Potency was inconclusive: 11.2 µM [inhibitor, partial curve, poor fit]. For `CCC(NC(=O)Nc1cc(C)on1)(C(F)(F)F)C(F)(F)F`, the Potency was inconclusive: 12.6 µM [inhibitor, partial curve, poor fit]. For `Cc1cc(C)c(C)c(Cn2c(CO)nc3ccccc32)c1C`, the Potency was inconclusive: 10 µM [inhibitor, single point]. With `CCCCNC(=O)Nc1ccccc1Br` the Potency was inconclusive: 15.8 µM [inhibitor, single point]. In the case of `O=C1c2ccccc2NC(c2ccc(F)cc2)N1Cc1ccccc1` (stereo not given), the Potency is reported as “inactive”. For `OCc1ccc(-c2nn(Cc3ccccc3)c3ccccc23)o1`, the Potency was active: 2.82 µM. With `Cc1ccc(C)c(N(C)C(=O)c2coc(=O)c3ccccc23)c1` the Potency was “inactive”. With `COc1cnc(-c2ccccn2)nc1Oc1ccc(C(C)(C)C)cc1` the Potency was inconclusive: 35.5 µM [inhibitor, single point]. For `O=C1c2ccccc2C2=Nc3ccccc3SC(c3ccc(Cl)cc3)C12` (stereo not given), the Potency was inconclusive: 20 µM [inhibitor, single point]. In the case of `CC(NC(=O)CSc1nc(=O)cc(N)n1-c1ccccc1)c1ccccc1` (stereo not given), the Potency is reported as “inactive”. For `CC1CCCN(Cc2c(O)ccc3c(=O)c(-c4nc5ccccc5s4)c(N)oc23)C1` (stereo not given), the Potency was inconclusive: 35.5 µM [inhibitor, single point]. With `O=C(Nc1cc(S(=O)(=O)N2CCOCC2)ccc1Cl)c1ccncc1` the Potency was inconclusive: 35.5 µM [inhibitor, single point]. For `COc1cc2c(cc1OC)C(c1ccc(C)cc1)NC(=O)C2` (stereo not given), the Potency was “inactive”. With `O=C(OCC(=O)c1c[nH]c2ccccc12)c1ccc([N+](=O)[O-])s1` the Potency was “inactive”. For `CCOc1ccccc1CNC(=O)c1ccc(Sc2ccc(Cl)cc2)c(NC(C)=O)c1`, the Potency was inconclusive: 3.16 µM [inhibitor, full curve]. In the case of `CN(c1ccccc1)S(=O)(=O)c1ccc(Cl)c(C(=O)NCc2ccccc2CN2CCCC2)c1`, the Potency is reported as “inactive”. For `NC(=O)COC(=O)c1cccc(NS(=O)(=O)/C=C/c2ccccc2)c1`, the Potency was inconclusive: 35.5 µM [inhibitor, single point]. In the case of `Cc1cccc(C)c1NC(=O)C1CCCN1C(=O)NCc1ccccc1` (stereo not given), the Potency is reported as “inactive”. For `COc1ccc2nc(SCC(=O)c3c(C)[nH]c4ccccc34)nc(C)c2c1`, the Potency was “inactive”. With `Cc1c(CN2CCC(C(=O)Nc3cccc(-c4cccc(Cl)c4)c3)CC2)cnn1C` the Potency was inconclusive: 25.1 µM [inhibitor, single point]. In the case of `Cc1cn2c(=O)c(S(=O)(=O)NCCc3ccccc3)c(C)nc2s1`, the Potency is reported as “inactive”. With `COc1ccc(-c2oc3ncnc(NCCCN(C)C)c3c2-c2ccc(OC)cc2)cc1` the Potency was inconclusive: 35.5 µM [inhibitor, single point]. With `CN(C(=O)c1ccc(NC(=O)Cc2cccc(NC(=O)C3CCCN(S(=O)(=O)c4cccc([N+](=O)[O-])c4)C3)c2)cc1)C1CC1` (stereo not given) the Potency was inconclusive: 20 µM [inhibitor, single point]. For `CC(C)OCCCNC(=O)c1ccc(-n2c(-c3ccccc3)cc3c2CCCC3)cc1`, the Potency was “inactive”. With `Cc1nc2ccccc2n1CC(=O)NC1CCCCCC1` the Potency was “inactive”. For `CC(=O)c1ccc(-c2ccc([C@H]3[C@@H]4C=CCC[C@@]4(C)C(=O)N3Cc3ccccc3)c(F)c2)cc1`, the Potency was inconclusive: 22.4 µM [inhibitor, single point]. With `O=C(CNC(=O)/C(=C\c1ccccc1)NC(=O)c1ccc(Br)cc1)OCc1ccccc1` the Potency was inconclusive: 35.5 µM [inhibitor, single point].
